# Measurements taken from the supplement of paper PMC8728848.
# This is one part of the list.
# Assays:
# Assay in all cases: glycan array binding signal (z-score within array); higher = stronger binding
# Settings in all cases: glycan notation: IUPAC condensed, linker removed
# [1] = target: GlcNAc(a1-6)Gal(b1-4)GlcNAc
# In short: (§1)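 Negative Z-scores can be read as non-binding. The Z-score is calculated within each array and then averaged across arrays of one protein sequence at different concentrations or buffers and across linkers. Arrays, 3228 in all, were curated from the Consortium for Functional Glycomics database and kept only where the protein sequence was available.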
# [2] = target: GlcNAc(b1-2)Gal(b1-3)GalNAc
# In short: as §1
# [3] = target: GlcNAc(b1-2)Man(a1-3)[GlcNAc(b1-2)Man(a1-6)]Man(b1-4)GlcNAc(b1-4)GlcNAc
# In short: as §1
# [4] = target: GlcNAc(b1-2)Man(a1-3)[GlcNAc(b1-2)Man(a1-6)]Man(b1-4)GlcNAc(b1-4)[Fuc(a1-6)]GlcNAc
# In short: as §1
# [5] = target: GlcNAc(b1-2)Man(a1-3)[GlcNAc(b1-4)][GlcNAc(b1-2)Man(a1-6)]Man(b1-4)GlcNAc(b1-4)GlcNAc
# In short: as §1
# [6] = target: GlcNAc(b1-2)Man(a1-3)[GlcNAc(b1-4)][GlcNAc(b1-2)Man(a1-6)]Man(b1-4)GlcNAc(b1-4)[Fuc(a1-6)]GlcNAc
# In short: as §1
# [7] = target: GlcNAc(b1-2)[GlcNAc(b1-4)]Man(a1-3)[GlcNAc(b1-2)Man(a1-6)]Man(b1-4)GlcNAc(b1-4)GlcNAc
# In short: as §1
# [8] = target: GlcNAc(b1-2)[GlcNAc(b1-4)]Man(a1-3)[GlcNAc(b1-4)][GlcNAc(b1-2)Man(a1-6)]Man(b1-4)GlcNAc(b1-4)GlcNAc
# In short: as §1
# [9] = target: GlcNAc(b1-2)[GlcNAc(b1-4)]Man(a1-3)[GlcNAc(b1-4)][GlcNAc(b1-2)[GlcNAc(b1-6)]Man(a1-6)]Man(b1-4)GlcNAc(b1-4)GlcNAc
# In short: as §1
# [10] = target: GlcNAc(b1-2)[GlcNAc(b1-4)]Man(a1-3)[GlcNAc(b1-4)][GlcNAc(b1-2)[GlcNAc(b1-6)]Man(a1-6)]Man(b1-4)GlcNAc(b1-4)[Fuc(a1-6)]GlcNAc
# In short: as §1
# [11] = target: GlcNAc(b1-2)[GlcNAc(b1-6)]Man(a1-6)[GlcNAc(b1-2)Man(a1-3)]Man(b1-4)GlcNAc(b1-4)GlcNAc
# In short: as §1
# [12] = target: GlcNAc(b1-2)[GlcNAc(b1-6)]Man(a1-6)[GlcNAc(b1-2)Man(a1-3)]Man(b1-4)GlcNAc(b1-4)[Fuc(a1-6)]GlcNAc
# In short: as §1
# [13] = target: GlcNAc(b1-2)[GlcNAc(b1-6)]Man(a1-6)[GlcNAc(b1-4)][GlcNAc(b1-2)Man(a1-3)]Man(b1-4)GlcNAc(b1-4)GlcNAc
# In short: as §1
# [14] = target: GlcNAc(b1-3)Fuc
# In short: as §1
# [15] = target: GlcNAc(b1-3)Gal
# In short: as §1
# [16] = target: GlcNAc(b1-3)Gal(b1-3)GalNAc
# In short: as §1
# [17] = target: GlcNAc(b1-3)Gal(b1-4)Glc
# In short: as §1
# [18] = target: GlcNAc(b1-3)Gal(b1-4)GlcNAc
# In short: as §1
# [19] = target: GlcNAc(b1-3)Gal(b1-4)GlcNAc(b1-2)Man(a1-3)[GlcNAc(b1-3)Gal(b1-4)GlcNAc(b1-2)Man(a1-6)]Man(b1-4)GlcNAc(b1-4)GlcNAc
# In short: as §1
# [20] = target: GlcNAc(b1-3)Gal(b1-4)GlcNAc(b1-2)Man(a1-3)[GlcNAc(b1-3)Gal(b1-4)GlcNAc(b1-2)Man(a1-6)]Man(b1-4)GlcNAc(b1-4)[Fuc(a1-6)]GlcNAc
# In short: as §1
# [21] = target: GlcNAc(b1-3)Gal(b1-4)GlcNAc(b1-2)[GlcNAc(b1-3)Gal(b1-4)GlcNAc(b1-6)]Man(a1-6)[GlcNAc(b1-3)Gal(b1-4)GlcNAc(b1-2)Man(a1-3)]Man(b1-4)GlcNAc(b1-4)GlcNAc
# In short: as §1
# [22] = target: GlcNAc(b1-3)Gal(b1-4)GlcNAc(b1-3)Gal(b1-4)GlcNAc
# In short: as §1
# [23] = target: GlcNAc(b1-3)Gal(b1-4)GlcNAc(b1-3)Gal(b1-4)GlcNAc(b1-2)Man(a1-3)[GlcNAc(b1-3)Gal(b1-4)GlcNAc(b1-3)Gal(b1-4)GlcNAc(b1-2)Man(a1-6)]Man(b1-4)GlcNAc(b1-4)GlcNAc
# In short: as §1
# [24] = target: GlcNAc(b1-3)Gal(b1-4)GlcNAc(b1-3)Gal(b1-4)GlcNAc(b1-2)Man(a1-3)[GlcNAc(b1-3)Gal(b1-4)GlcNAc(b1-3)Gal(b1-4)GlcNAc(b1-2)Man(a1-6)]Man(b1-4)GlcNAc(b1-4)[Fuc(a1-6)]GlcNAc
# In short: as §1
# [25] = target: GlcNAc(b1-3)Gal(b1-4)GlcNAc(b1-3)Gal(b1-4)GlcNAc(b1-2)[GlcNAc(b1-3)Gal(b1-4)GlcNAc(b1-3)Gal(b1-4)GlcNAc(b1-6)]Man(a1-6)[GlcNAc(b1-3)Gal(b1-4)GlcNAc(b1-3)Gal(b1-4)GlcNAc(b1-2)Man(a1-3)]Man(b1-4)GlcNAc(b1-4)[Fuc(a1-6)]GlcNAc
# In short: as §1
# [26] = target: GlcNAc(b1-3)Gal(b1-4)GlcNAc(b1-3)Gal(b1-4)GlcNAc(b1-3)Gal(b1-4)GlcNAc(b1-2)Man(a1-3)[GlcNAc(b1-3)Gal(b1-4)GlcNAc(b1-3)Gal(b1-4)GlcNAc(b1-3)Gal(b1-4)GlcNAc(b1-2)Man(a1-6)]Man(b1-4)GlcNAc(b1-4)GlcNAc
# In short: as §1
# [27] = target: GlcNAc(b1-3)Gal(b1-4)GlcNAc(b1-3)Gal(b1-4)GlcNAc(b1-3)Gal(b1-4)GlcNAc(b1-2)Man(a1-3)[GlcNAc(b1-3)Gal(b1-4)GlcNAc(b1-3)Gal(b1-4)GlcNAc(b1-3)Gal(b1-4)GlcNAc(b1-2)Man(a1-6)]Man(b1-4)GlcNAc(b1-4)[Fuc(a1-6)]GlcNAc
# In short: as §1
# [28] = target: GlcNAc(b1-3)Gal(b1-4)GlcNAc(b1-3)Gal(b1-4)GlcNAc(b1-3)Gal(b1-4)GlcNAc(b1-2)[GlcNAc(b1-3)Gal(b1-4)GlcNAc(b1-3)Gal(b1-4)GlcNAc(b1-3)Gal(b1-4)GlcNAc(b1-6)]Man(a1-6)[GlcNAc(b1-3)Gal(b1-4)GlcNAc(b1-3)Gal(b1-4)GlcNAc(b1-3)Gal(b1-4)GlcNAc(b1-2)Man(a1-3)]Man(b1-4)GlcNAc(b1-4)[Fuc(a1-6)]GlcNAc
# In short: as §1
# [29] = target: GlcNAc(b1-3)Gal(b1-4)GlcNAc(b1-3)Gal(b1-4)GlcNAc(b1-3)Gal(b1-4)GlcNAc(b1-3)Gal(b1-4)GlcNAc(b1-2)Man(a1-3)[GlcNAc(b1-3)Gal(b1-4)GlcNAc(b1-3)Gal(b1-4)GlcNAc(b1-3)Gal(b1-4)GlcNAc(b1-3)Gal(b1-4)GlcNAc(b1-2)Man(a1-6)]Man(b1-4)GlcNAc(b1-4)GlcNAc
# In short: as §1
# [30] = target: GlcNAc(b1-3)Gal(b1-4)GlcNAc(b1-3)Gal(b1-4)GlcNAc(b1-3)Gal(b1-4)GlcNAc(b1-3)Gal(b1-4)GlcNAc(b1-2)Man(a1-3)[GlcNAc(b1-3)Gal(b1-4)GlcNAc(b1-3)Gal(b1-4)GlcNAc(b1-3)Gal(b1-4)GlcNAc(b1-3)Gal(b1-4)GlcNAc(b1-2)Man(a1-6)]Man(b1-4)GlcNAc(b1-4)[Fuc(a1-6)]GlcNAc
# In short: as §1
# [31] = target: GlcNAc(b1-3)Gal(b1-4)GlcNAc(b1-3)Gal(b1-4)GlcNAc(b1-3)Gal(b1-4)GlcNAc(b1-3)Gal(b1-4)GlcNAc(b1-2)[GlcNAc(b1-3)Gal(b1-4)GlcNAc(b1-3)Gal(b1-4)GlcNAc(b1-3)Gal(b1-4)GlcNAc(b1-3)Gal(b1-4)GlcNAc(b1-6)]Man(a1-6)[GlcNAc(b1-3)Gal(b1-4)GlcNAc(b1-3)Gal(b1-4)GlcNAc(b1-3)Gal(b1-4)GlcNAc(b1-3)Gal(b1-4)GlcNAc(b1-2)Man(a1-3)]Man(b1-4)GlcNAc(b1-4)[Fuc(a1-6)]GlcNAc
# In short: as §1
# [32] = target: GlcNAc(b1-3)Gal(b1-4)GlcNAc(b1-3)Gal(b1-4)GlcNAc(b1-3)GalNAc
# In short: as §1
# [33] = target: GlcNAc(b1-3)Gal(b1-4)GlcNAc(b1-3)GalNAc
# In short: as §1
# [34] = target: GlcNAc(b1-3)Gal(b1-4)GlcNAc(b1-3)[GlcNAc(b1-3)Gal(b1-4)GlcNAc(b1-3)]GalNAc
# In short: as §1
# [35] = target: GlcNAc(b1-3)Gal(b1-4)GlcNAc(b1-6)[Gal(b1-3)]GalNAc
# In short: as §1
# [36] = target: GlcNAc(b1-3)Gal(b1-4)GlcNAc(b1-6)[GlcNAc(b1-3)Gal(b1-3)]GalNAc
# In short: as §1
# [37] = target: GlcNAc(b1-3)Gal(b1-4)GlcNAc(b1-6)[GlcNAc(b1-3)]Gal(b1-4)GlcNAc
# In short: as §1
# [38] = target: GlcNAc(b1-3)GalNAc
# In short: as §1
# [39] = target: GlcNAc(b1-3)Man
# In short: as §1
# [40] = target: GlcNAc(b1-3)[GlcNAc(b1-4)][GlcNAc(b1-6)]GlcNAc
# In short: as §1
# [41] = target: GlcNAc(b1-3)[GlcNAc(b1-6)]Gal(b1-4)GlcNAc
# In short: as §1
# [42] = target: GlcNAc(b1-3)[GlcNAc(b1-6)]GalNAc
# In short: as §1
# [43] = target: GlcNAc(b1-4)Gal(b1-4)GlcNAc
# In short: as §1
# [44] = target: GlcNAc(b1-4)GlcNAc
# In short: as §1
# [45] = target: GlcNAc(b1-4)GlcNAc(b1-4)GlcNAc
# In short: as §1
binder,measurement,setting,value
"AT1G73650(15) (Arabidopsis thaliana), F4HRY1 (protein) MGTVLDSHFLALTAIVTVIYQFIFFVITALFKFDQVTDFAGSTNFVILAVLTLVLKASWHFRQIVLTLLVVVWGLRLGIFLLMETRILQWGEDRRFDEQRGNIVRLIIFWTLQAVWVWTVSLPLTLVNASDGGGSLKPADVIGWTMETWVFGFLIEAAADQQKLSFKNSPENRGKWCDVGVWKYSRHPNYFGEMETLLWWGIFVAASPVLEGAEYLVIFGPLFLTLLLLFVSGIPLLEASADKKHGNSGAYRSYKKTTSPLILFPRGVYGNLPGWFKTVFLFEFPFYSRNLPQEGRLQNSKEKEVKDD",glycan array binding signal (z-score),[1],-0.621
same,glycan array binding signal (z-score),[2],-0.316
same,glycan array binding signal (z-score),[3],-0.569
same,glycan array binding signal (z-score),[4],-0.506
same,glycan array binding signal (z-score),[5],2.2
same,glycan array binding signal (z-score),[6],-0.589
same,glycan array binding signal (z-score),[7],-0.407
same,glycan array binding signal (z-score),[8],-0.416
same,glycan array binding signal (z-score),[9],-0.515
same,glycan array binding signal (z-score),[10],-0.195
same,glycan array binding signal (z-score),[11],-0.473
same,glycan array binding signal (z-score),[12],0.047
same,glycan array binding signal (z-score),[13],-0.322
same,glycan array binding signal (z-score),[14],-0.6
same,glycan array binding signal (z-score),[15],-0.339
same,glycan array binding signal (z-score),[16],0.587
same,glycan array binding signal (z-score),[17],-0.31
same,glycan array binding signal (z-score),[18],-0.522
same,glycan array binding signal (z-score),[19],-0.358
same,glycan array binding signal (z-score),[20],-0.144
same,glycan array binding signal (z-score),[21],-0.133
same,glycan array binding signal (z-score),[22],-0.505
same,glycan array binding signal (z-score),[23],0.308
same,glycan array binding signal (z-score),[24],-0.505
same,glycan array binding signal (z-score),[25],-0.333
same,glycan array binding signal (z-score),[26],-0.334
same,glycan array binding signal (z-score),[27],-0.04
same,glycan array binding signal (z-score),[28],0.008
same,glycan array binding signal (z-score),[29],0.989
same,glycan array binding signal (z-score),[30],-0.574
same,glycan array binding signal (z-score),[31],0.192
same,glycan array binding signal (z-score),[32],-0.375
same,glycan array binding signal (z-score),[33],-0.774
same,glycan array binding signal (z-score),[34],-0.581
same,glycan array binding signal (z-score),[35],0.716
same,glycan array binding signal (z-score),[36],-0.702
same,glycan array binding signal (z-score),[37],-0.384
same,glycan array binding signal (z-score),[38],0.228
same,glycan array binding signal (z-score),[39],-0.038
same,glycan array binding signal (z-score),[40],-0.48
same,glycan array binding signal (z-score),[41],-0.355
same,glycan array binding signal (z-score),[42],0.394
same,glycan array binding signal (z-score),[43],-0.398
same,glycan array binding signal (z-score),[44],-0.624
same,glycan array binding signal (z-score),[45],-0.301
